Assay results reported in patent US12599649B2, “Bioactive polypeptides for improvements in plant protection, growth and productivity” (priority 2017, dated 2026).

What was measured:
tomato [1] = test: Foliar Bt.4Q7Flg22 and Gm.RHPP on Roma tomato, fruit weight (Example 41); type: in vivo
Protocol: Small scale plots were designed to simulate commercial growing conditions for tomatoes. Tomato plants, variety Roma were started from transplants that were grown in a greenhouse for 45 days prior to planting into 2 raised field row beds with 2 feet (0.6 meters) between each transplant with an average of 30 plants per row bed. […] Tomatoes were grown on raised beds covered with black plastic mulch. Plants were grown using drip irrigation and fertilizer (80 lbs. or 36.3 kg) nitrogen; 100 lbs. (45.4 kg) phosphate, and 100 lbs. (45.4 kg) potash or potassium) applied following grower guidelines throughout the growing season to provide for optimum plant growth and yields. Small raised bed plots were designed to simulate the planting densities used by commercial growers that generally plant 2,600 to 5,800 plants per acre in single rows with 45.7 to 76.2 cm between plants in the row on 1.5- to 2-meter centers. [Orzolek et al., “Agricultural Alternatives: Tomato Production.” University Park: Penn State Extension, 2016].
Foliar treatments using Bt.4Q7Flg22 and Gm.RHPP were applied on the tomato plants directly at early bloom (first flower) stage. […] Plants were treated in replicates of 6 plants, with three replicates per treatment. Effect of the foliar treatments on the yield obtained from tomatoes was determined and reported as normalized to no spray control treatment. The average fruit weight per tomato plant is reported as the combined average for 2 separate harvests and the average percentage change in fruit weight as compared to the no-spray control in Table 61.

tomato [2] = test: Foliar treatment of tomato, yield (Examples 11, 12, 25); type: in vivo; conditions: for average increase in tomato yield over control: 1 Fl. oz/Ac
Protocol: Small scale plots were designed to simulate commercial growing conditions for tomatoes. Two hybrids of tomatoes, JetSetter (Trial 1) and Better Big Boy (Trial 2) were started as transplants in the greenhouse 42 to 56 days prior to planting in the raised field beds. Tomatoes were transplanted once soil temperatures three inches (7.6 cm) beneath the soil surface reach 60° F. (15.5° C.). Tomatoes were grown on raised beds covered with black plastic mulch. Plants were grown using drip irrigation and fertilizer applied following grower guidelines throughout the growing season to ensure optimum plant growth and yields. Small raised bed plots were designed to simulate the planting densities used by commercial growers that generally plant 2,600 to 5,800 plants per acre in single rows with 18 to 30 inches (46 to 76 cm) between plants in the row on 5- to 6.5-ft (1.5 to 2 m) centers.
Foliar treatments of Bt.4Q7 Flg22 and Ec. […] Replicated trials were conducted at the University of Missouri (Columbia, MO) in July. Control plants were treated with equal volumes (use rates) of water. Effects of the foliar treatments on increasing yield in tomatoes were determined and reported as normalized to the water control treatment.
In another experiment, tomato plants (hybrid: Better Boy), cultivated as described in the previous example, were treated with a formulation of Bt.4Q7 Flg22 at the first bloom stage. The formulation used consisted of the retro inverso D RI Bt.4Q7 Flg22 applied with 0.01% (v/v) non-ionic surfactant. […] At harvest, the yield was measured as the number of fruits per plant, the weight (grams) per fruit and the total yield (lbs/Ac). Table 29 reports the yield as a percent comparison or change to the non-treated control (water only) plants.
Foliar application treatments of Gm.RHPP (SEQ ID NO: 600) was applied as an exogenous spray at the pre-bloom stage and used to increase yield in tomatoes. Two tomato hybrids (JetSetter and Better Big Boy) were planted in small scale plots as described in Example 12. […] Replicated trials were conducted at the US Midwest (Missouri) in July. The foliar treatment of Gm.RHPP on tomato plants was compared to the control (water applied at same use rate). Effects of the foliar treatments on increasing yield in tomatoes were determined and reported as normalized to the water control treatment and reported as the average percentage change in yield over the average control yield in Table 41.

[3] = tomato, foliar 1 Fl. oz/Ac at early bloom, vs water control

Substance: RHPP: root hair promoting polypeptide derived from Glycine max (GGIRAAPTGNER; Glycine max)
- change in fruit weight per plant vs no spray control (tomato [1]; Bt.4Q7Flg22 16.7 μM at 4.0 Fl. oz/Ac, Gm.RHPP 100 μM at 3.2 Fl. oz/Ac): ~2%
- Average Fruit Weight (grams) per Plant (tomato [1]; Roma tomato, foliar at early bloom, 2 harvests, Bt.4Q7Flg22 4.0 Fl. oz/Ac, Gm.RHPP 3.2 Fl. oz/Ac): 1397.1 grams
- Percentage Change in Fruit Weight Compared to No-Spray Control (tomato [1]; Roma tomato, foliar at early bloom, Bt.4Q7Flg22 4.0 Fl. oz/Ac, Gm.RHPP 3.2 Fl. oz/Ac): +1.99%
- average increase in tomato yield over control (tomato [2]; Better Big Boy hybrid): 10%
- average increase in tomato yield over control (tomato [2]; Jetsetter hybrid): 93%
- average increase in tomato yield over control (tomato [2]; average of hybrids JetSetter and Better Big Boy): 52%
- Average Trials 1 & 2 Percent Change Yield over Avg. Control (tomato [2]; tomato, both hybrids, foliar 1 Fl. oz/Ac, vs water control): +52%
- Trial 1: Percent Change in Yield over Avg. Control; Hybrid: Jetsetter (tomato [2]; [3]): +93%
- Trial 2: Percent Change in Yield over Avg. Control; Hybrid: Better Big Boy (tomato [2]; [3]): +10%
